“And” between values parts separate entries of the source, which are not always exact repeats. Equal values may be shown once.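 These data come from cells grown in 96-well plates and exposed to compound for 48 hours at five concentrations. At the GI50, growth is halved. TGI: total growth inhibition.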
System: NCI-H322M lung
Assay: NCI anticancer screen, dose series, 48 h

SMILES	TGI	GI50
CC(=O)Nc1ccc(NC(=O)c2c(Cl)c(Cl)c(Cl)c(Cl)c2-c2nc3ccccc3[nH]2)cc1	> 100 µM	
COc1c(OC)c(OC)c2c(c1OC)c(=O)c1ccccc1n2C	> 100 µM	
C=CC[N+]12CN3CN(CN(C3)C1)C2	57.2 µM	
O=C(/C=C/c1cccnc1)NCCCCC1CCCN(C(=O)c2ccccc2)C1 (stereo unspecified)	> 100 µM	> 45.3 µM
O=C1c2ccccc2C(=O)[C@@]23O[C@@]12C1(Oc2cccc4cccc(c24)O1)[C@@H]1O[C@@H]1[C@@H]3O	35.1 µM	
CCOC(=O)c1[nH]c(Br)c(-c2ccc(Br)cc2)c1Br	> 100 µM	14.7 µM
Cc1ccc(-n2c3c(c4c(CN(C)C)c(O)ccc42)CCc2ccccc2C3=O)cc1	48.1 µM	22.2 µM
CCOC(=O)C(/C=N\C(=S)Nc1ccc(Cl)c(Cl)c1)=C(/O)c1ccccc1	> 100 µM	
C=C1C(=O)O[C@H]2[C@H]1CC/C(Cn1cc(-c3cc(C(F)(F)F)cc(C(F)(F)F)c3)nn1)=C\CC[C@@]1(C)O[C@@H]21	3.6 µM	1.67 µM
COc1ccc(C(=O)Cn2c(C(=O)/C=C/c3ccco3)nc3ccccc32)cc1	> 100 µM	
N#C/C(=C/c1ccc[nH]1)P(=O)(O)O	> 100 µM	
COC(=O)C1(c2cc3ccccc3n2S(=O)(=O)c2ccccc2)CC2C=CC1NC2 (stereo unspecified)	11 µM	
COc1cc(C)c(Cl)cc1C1=NN(c2ccc(S(N)(=O)=O)cc2)C(/C=C/c2ccccc2)C1 (stereo unspecified)	68.9 µM	4.97 µM
CC(C)=NN/C(=N\S(=O)(=O)c1ccc(C)cc1)Nc1ccc(Cl)cc1	> 100 µM	
Cn1c(=O)nc2n(-c3cccc(Br)c3)c3ccccc3nc-2c1=O	17 µM	
CN(C(=O)C12C3C4C1C1C4(C(=O)C45C6C7C4C4C5C6C74C)C3C12C)C(C)(C)C (stereo unspecified)	> 100 µM	
Cc1nc2sc3ccccc3n2c(=O)c1N=Nc1ccc(Br)cc1	> 100 µM	
Cc1ccc(NN=NCCCCN)cc1	> 100 µM	
O=c1ccc2nc(-c3ccccc3)nn(-c3ccccn3)c-2c1	> 100 µM	> 100 µM
COc1cc(OC)c2c(=O)cc(-c3ccccc3F)[nH]c2c1	> 100 µM	
C#CCOc1c(C(=O)OCC)c(=O)n(C)c2ccccc12	> 100 µM	
CCOP(=O)(CCCC(O)CNc1cc(Cl)nc(N)n1)OCC (stereo unspecified)	> 100 µM	
Oc1cc(Br)cc2cccnc12	> 100 µM	
O=C1c2ccccc2NC(=O)C2C1C(c1ccccc1)CC2(O)c1ccccc1 (stereo unspecified)	> 100 µM	

SMILES	TGI	GI50
Clc1cc(Cc2cc(Cl)c(Cl)c3c2OCOC3)c2c(c1Cl)COCO2	> 100 µM	
O=C1NC(O)C(c2c[nH]c3ccccc23)=C1c1c[nH]c2ccccc12 (stereo unspecified)	> 25 µM	> 25 µM
CC(C)(O)CS(=O)(=O)Nc1ccc2c(c1)CCN(C(=O)COc1cccnc1)C2	> 100 µM	> 100 µM
C=C(CN1C(=O)[C@H]2CCCN2C(=O)c2ccccc21)c1ccc(C(=O)O)cc1	> 100 µM	> 100 µM
COc1c(C)c2c(c(=O)c3c(C)cccc3n2C)c2c1c(=O)c1c(C)cccc1n2C	> 10 µM	
N/C(=C\c1ccc(OCc2ccccc2)c(OCc2ccccc2)c1[N+](=O)[O-])C(=O)O	> 100 µM	
O=C1/C(=C/c2ccccc2)CN(C(=O)c2cccnc2)C/C1=C\c1ccccc1	7.09 µM	2.62 µM
CC[C@H](Nc1nc(NCc2cnc(C)cc2C)c2ncn(C(C)C)c2n1)[C@@H](C)O	> 100 µM	0.361 µM
O=C1C(Cl)=C(Nc2cccc(Cl)c2)C(=O)N1Cc1ccccc1Cl	38.6 µM	16.5 µM
COc1cc(C)c2c(=O)c3ccccc3n(C)c2c1	> 100 µM	
N#CC(C(=O)/C(=N/N)C(C#N)c1ccccc1)c1ccccc1 (stereo unspecified)	> 100 µM	
COc1ncc(-c2ccc3nccc(-c4ccnnc4)c3c2)cc1NS(=O)(=O)c1ccc(F)cc1F	1.21 µM and 1.11 µM	0.00928 µM and < 0.01 µM
O=C(Nc1cccc(Cl)c1)c1ccc(NC2=C(Cl)C(=O)N(Cc3ccccc3)C2=O)cc1	22.9 µM	7.96 µM
C=CC(c1ccccc1)[C@@]1(OC(C)=O)C(=O)C(=O)OC1C1COC(C)(C)O1 (stereo partly specified)	31.6 µM	
COC(=O)C1=C(C(=O)ON)C2C=CC1(C(Cc1ccccc1)Nc1ccccc1)O2 (stereo unspecified)	28.3 µM	14.9 µM
COc1cc2c3c(n(CCCN)c(=O)c2cc1OC)-c1cc2c(cc1/C3=C\CCN)OCO2		0.528 µM
O=c1ccn(C2OC(CO/N=C/c3ccc(O)c(O)c3O)C(O)C2O)c(=O)[nH]1 (stereo unspecified)	66.7 µM	27.2 µM
CCOC(=O)N1CCc2cc(OC)c(OC)c3c2c1cc1cc(OC)c(OC)cc13	> 100 µM	
CC1(C)O[C@@H]2[C@@H](COC(=O)c3ccccc3)C[C@@H](C#N)[C@@H]2O1	> 100 µM	
O=NNc1ccc(S(=O)(=O)c2ccccc2)cn1	> 100 µM	
COc1cc2cc(Oc3ccc(NC(=O)Nc4cccc(C(F)(F)F)c4)cc3)c(C)nc2cc1OC	16.6 µM	2.84 µM
O=c1c2ccccc2n(C[C@H]2CO2)c2ccccc12	5.85 µM	2.2 µM
COC(=O)c1ccccc1CC1Cc2ccc3c(c2C1)CCC3 (stereo unspecified)	> 100 µM	
CC(=O)N1OC(C)CC1Nc1ccc(Br)cc1 (stereo unspecified)	> 100 µM	

SMILES	TGI	GI50
COc1cc(/C=C2\C[C@H]3[C@@H]4CC=C5C=C(N6CCCC6)CC[C@]5(C)[C@H]4CC[C@]3(C)C2=O)cc(OC)c1OC	22.3 µM	
Cc1c(-c2c(-c3ccc(F)o3)sc3ncnc(O[C@H](Cc4ccccc4OCc4ccnn4CC(F)(F)F)C(=O)O)c23)ccc(OCCN2CCN(C)CC2)c1Cl	14.5 µM	4.94 µM
CN(CCCCN1CCCC1)CCCN(C)C(=O)Cc1ccc(Cl)c(Cl)c1	33 µM	
Cc1ccc(N=Nc2ccc(O)c(CN(C)C)c2)cc1C	> 100 µM	
COc1ccc(C2CC(c3ccccc3)=Nc3c(-c4ccccc4)nnn32)cc1 (stereo unspecified)	85.9 µM	
COc1ccc2nc3ccc(OC)cc3c(SCc3ccc([N+](=O)[O-])cc3)c2c1	> 100 µM	
O=C(CC(C(=O)c1cccs1)c1ccsc1)c1cccs1 (stereo unspecified)	> 100 µM	
O=C(CC(C(=O)c1ccco1)c1ccsc1)c1ccco1 (stereo unspecified)	> 100 µM	
O=C(CNc1ccc2c(c1)C(=O)c1ccccc1C2=O)Nc1ccc2c(c1)C(=O)c1ccccc1C2=O	3.02 µM	1.63 µM
Nc1nc(Cl)c2ncn(Cc3ccc(CCl)cc3)c2n1	43 µM	
O=c1cc2ccccc2nn1Cc1cccc(Cl)c1	> 100 µM	
COC1CC2CCC(C)C(O)(O2)C(=O)C(=O)N2CCCCC2C(=O)OC(C(C)CC2CCC(O)C(OC)C2)CC(=O)C(C)C=C(C)C(O)C(OC)C(=O)C(C)CC(C)/C=C/C=C/C=C1C (stereo unspecified)	13.7 µM	< 0.005 µM
C/C(=N/Nc1nc2ccccc2n1C)c1ccccn1	29.9 µM	0.0596 µM
NNC(=O)c1ccccc1NC(=O)/C(=C/c1ccccc1O)NC(=O)c1ccccc1	> 100 µM	
FC(F)(Sc1ccccn1)c1nc2ccccc2o1	> 100 µM	
CC(C)=CCNc1ncnc2nc[nH]c12	> 100 µM	
N=C(c1ccc2ccccc2c1)c1ccccc1Cc1ccccc1	> 100 µM	
c1ccc(Cc2nc(Cc3n[nH]c(Cc4ccccc4)n3)n[nH]2)cc1	> 100 µM	
COc1cc(CNc2ccc3nc4n(c(=O)c3c2)CCCCC4)cc(OC)c1OC	> 100 µM	
Oc1cc(-c2ccccc2)cn2c1nc1ccccc12	> 100 µM	
COc1ccc(/C=C\c2cc(OC)c(OC)c(OC)c2)cc1OC(=O)c1cccc(Cn2cc(CCOC(=O)[C@H](N)Cc3cn(C)c4ccccc34)nn2)c1	> 100 µM	0.0394 µM
CC(C)(C)C(=O)C(C(=O)C(C)(C)C)C(=O)C(C)(C)C	> 100 µM	
O=C(COc1ccc(OCC(=O)N2C(=O)CSC2=Nc2ccccc2)cc1)N1C(=O)CSC1=Nc1ccccc1	87.4 µM	
C=CC(=O)N1CCN(c2nc(=O)n(-c3c(C)ccnc3C(C)C)c3nc(-c4c(O)cccc4F)c(F)cc23)[C@@H](C)C1	> 100 µM	> 64.4 µM

SMILES	TGI	GI50
COc1cc(NC(C)=O)ccc1C(=O)N/N=C/c1ccc(Cl)cc1Cl	> 100 µM	
Cc1cc2nc3c4cc(N)ccc4n(CCN(C)C)c3nc2cc1C	6.29 µM	0.65 µM
O=c1[nH]/c(=C/c2ccc(OCc3ccccc3)cn2)c(=O)[nH]/c1=C/c1ccc([N+](=O)[O-])cc1	> 100 µM	
C/C(=N\Nc1cc(C)c2cc(C)ccc2n1)c1ccccn1	1.22 µM	< 0.0258 µM
N#Cc1nc2c(S(=O)(=O)c3ccccc3)c(N)n(Cc3cccnc3)c2nc1C#N	> 100 µM	> 100 µM
Cc1ccc(NC(=O)CSc2nc(C)nc3c2sc(=S)n3-c2ccccc2)cc1	> 10 µM	
CCOC(=O)C12CCC(=O)C=C1[C@@H](C)C(=O)CC2 (stereo partly specified)	> 100 µM	
Oc1cc(O)c2c(-c3c(O)c(-c4ccc(O)c(O)c4)[o+]c4cc(O)cc(O)c34)c(O)c(-c3ccc(O)c(O)c3)[o+]c2c1	> 100 µM	
CC(C)(C)c1nn(-c2ccccc2)c2c1C(=O)CSC(c1ccccc1Cl)N2 (stereo unspecified)	23.4 µM	7.92 µM
C=CCN1C(=O)/C(=C/c2ccc(OC)cc2)NC1=S	> 100 µM	
CCC/C(=N/N=C(N)N)c1ccc(NC(=O)c2cc3cc(OC)ccc3[nH]2)cc1	29.1 µM	13.6 µM
COc1cc(C)c(/C=C/C(=O)N2C(=O)OC[C@@H]2c2ccccc2)c(C)c1	> 100 µM	
COC1CC(OC2C(C)OC(OC3C(C)OC(OC4C(O)CC(O[C@H]5CC[C@@]6(C)C(=CC[C@]7(O)[C@@H]6C[C@@H](OC(=O)/C=C/c6ccccc6)[C@@]6(C)[C@]7(O)CC[C@@]6(O)C(C)=O)C5)OC4C)CC3OC)CC2OC)OC(C)C1O (stereo partly specified)	> 6.25 µM	
O=C(CC1(O)C(=O)Nc2c(Cl)ccc(Cl)c21)c1ccc2ccccc2c1 (stereo unspecified)	57 µM	
CCc1c(C#N)c(S[C@@H](C(N)=O)c2ccccc2)nc(N(C)C)c1C#N	> 100 µM	> 100 µM
CC(C)[C@H](CO)Nc1nc(Nc2ccc(C(=O)NCCNS(=O)(=O)c3cccc4c(N(C)C)cccc34)c(Cl)c2)c2ncn(C(C)C)c2n1	> 100 µM	3.63 µM
CCCCCCCCCCCCCC(=O)CC(=O)c1c(O)cccc1O	> 100 µM	
c1ccc2c(c1)nc1n2CCCn2ccnc2-1	> 100 µM	
O=C1C(N2CCNCC2)=C(Cl)C(=O)c2ncccc21	> 10 µM	
O=C(CSc1nc2ccccc2s1)c1sc2sc3ccccc3[n+]2c1[O-]	> 100 µM	
Nc1nc(N)c(NC(=O)CCCO)c(=O)[nH]1	> 100 µM	
O=C1CCC(=O)N1Cc1ccccc1N=[N+]([O-])c1ccccc1CN1C(=O)CCC1=O	> 100 µM	
C[S+](C)CCOC(=O)C(=[N+]=[N-])c1ccc([N+](=O)[O-])cc1	> 100 µM	

Source: PubChem BioAssay (NCI)
